The list shows a part of the results.
B1: chr3:196089228:196089229:-_ENSG00000163960_ENST00000296328|hu_mus|FALSE|FALSE (ssRNA)
RNA: GGGAGUUCUACAGUCCGACGAUCUUCCCUUUUUCCAUCUGGGUACCGCAGCAUCAGCUGUGCUUUUGGUCCAUUUACAUCUAUCCCCUCCACUAUUCCAUCUGACUUUUCAGGUGACAUCUCCAAGACCUCAGAAUCCAUGGACAACAGAGGAUUGAGCAUCA
B2: chr4:94236435:94236436:-_ENSMUSG00000028577_ENSMUST00000107107|mus_mus|FALSE|FALSE (ssRNA)
RNA: GGGAGUUCUACAGUCCGACGAUCCUGGGACAUCAUGAGCUUUUGUCCUGCCUGACUAACAAAGCAAUUGCAAAAAGUCCUAAGAGCAAGCAGCUGGUUUGCUGGCUUUCCUUUGGGGUUCAGAAGGUUGAUAAGAUGGCUGCUCAACAGAGGAUUGAGCAUCA
B3: chr1:219384972:219384973:+_ENSG00000143353_ENST00000366928|hu_hu|FALSE|FALSE (ssRNA)
RNA: GGGAGUUCUACAGUCCGACGAUCCCAUAACUUCAAUAUGUCUAACUCAGUUUUGCUUAGCUCAUGGUAAACAUUUGGAAAACUAUGAAACUUCGUGGUCACUCCUAGAGAUUUUAACAUUGAGUUUGUCUCUUCUGCCCAAGACAACAGAGGAUUGAGCAUCA
B4: chr8:67197462:67197463:-_ENSMUSG00000031604_ENSMUST00000034015|mus_hu|motif|central (ssRNA)
RNA: GGGAGUUCUACAGUCCGACGAUCCUGAAAUGACCAGUAUAUAUCUAAAAGAUUUAAAGACCCAAUGUGAACUUCAGGCCGGUGGUUUUACUGGGAGAAAAGCCAUAGAUUAAUACUUCUAGUAUCCAAAACCUUCUUGGAAGCCAACAGAGGAUUGAGCAUCA
B5: 61442511_61442631_1450_CDS_ENSG00000126814_ENST00000261249|human|control|control (ssRNA)
RNA: GGGAGUUCUACAGUCCGACGAUCUGACAGACCCAGCAGCUGCAUUAACUCUUCUUUGACUGGUCCUUGGAGGAAGUCUUUCCCAUCCAAGUUGAAGACUUUCACCUUUUGGUCCACUUUAUUUAAUUUACAGUUGUACAACAGCAACAGAGGAUUGAGCAUCA
B6: 68173346_68299047_163_5pUTR_ENSG00000172380_ENST00000370982|human|control|control (ssRNA)
RNA: GGGAGUUCUACAGUCCGACGAUCGUGCUUGCUGUUUUGCUGGACAUCUUCAAUUAUUGUUUUUACCUGAAAUCAGUAAGACUUUGUGUGGUCCAAUGUUUUCAGGUUUUAAGUGGAAUGAAUCCGCCUGCCGGUGCGCUGCCCCAACAGAGGAUUGAGCAUCA
B7: chr7:141438946:141438947:+_ENSG00000106028_ENST00000265304|hu_mus|hu_hu_hu_mus_True|78_78 (ssRNA)
RNA: GGGAGUUCUACAGUCCGACGAUCGACGAAAUACCUGUAACACAGGUCUUCGAAACAUUCUAUUUUCUUUUCUUACAACCUAAUCUUUAGGCUUUUCCUAAAGGAAAGAAAGAAAAGAGAAAAAUGAUAAAUCAAGAAACUACACAACAGAGGAUUGAGCAUCA
B8: chr12:16048344:16048345:+_ENSG00000023734_ENST00000419869|hu_mus|motif|central (ssRNA)
RNA: GGGAGUUCUACAGUCCGACGAUCAGAUCGUCCAUAAGUAAUAACCAAAAUCUCUCCUUCAGGAAUAUACUCCAUGCUGCGGACAGACAUAUUAAAAUUCAGAGAUUUCACUUCUGUCAUUGUGGCAUGAUCCCAGAGCCGAACCAACAGAGGAUUGAGCAUCA
B9: chr1:58468927:58468928:-_ENSMUSG00000026034_ENSMUST00000148330|mus_mus|mus_mus_mus_hu_False|1_78 (ssRNA)
RNA: GGGAGUUCUACAGUCCGACGAUCAAUUACUGAAAAAGAUGUUCAUUACCUUAGCUAGGCCAUGUAUGAACCAAAUUACCCAAACAAAAUAAACAUGGCAAUAUAAAAAUGUUAAGAAUUUACAAAGCUGUACAAAAAGACUGACAACAGAGGAUUGAGCAUCA
B10: 12845315_12845435_96_CDS_ENSG00000123144_ENST00000591254|human|control|control (ssRNA)
RNA: GGGAGUUCUACAGUCCGACGAUCCACCGGGCUCGAACCCGCGCCCGACACCUCCUCGUCCCCGCUCUCGGGCGACGUCCCCGAUCCCGACUCAGCCCAACGGCUCCCGCCACCGCCACCGCCCGCGGGGCCCGGAGCCUCCCGCAACAGAGGAUUGAGCAUCA
B11: chr2:198351390:198351391:-_ENSG00000144381_ENST00000345042|hu_hu|hu_hu_hu_mus_False|1_38 (ssRNA)
RNA: GGGAGUUCUACAGUCCGACGAUCUCAUUCCCACCCUCCACAGAAAGGCUGCUUCUGAACUCUCAUGUGGUGACACAGCGCUACAGUCCUGAUGCUCACAGAAUAGUAGAGAUGCCUCAGUGAUUUAAGUUGAAAGCAGCAGUACAACAGAGGAUUGAGCAUCA
B12: chr6:38652254:38652255:-_ENSG00000124767_ENST00000373365|hu_hu|hu_hu_hu_mus_False|28_28 (ssRNA)
RNA: GGGAGUUCUACAGUCCGACGAUCCGAGAACUUCAUAGCAGGGAAGUCAAGCUUCUGCAGGAGGGUCAGUCCAAGAACCCUCGUAUAAAAAUCCAGGGACUUCUUAGGAUCCUUCACUCUUAGCAUCGUUUGCUGCAGUAGAAACAACAGAGGAUUGAGCAUCA
B13: chr5:143539998:143539999:-_ENSG00000145817_ENST00000274496|hu_hu|motif|central (ssRNA)
RNA: GGGAGUUCUACAGUCCGACGAUCUUUUCAAAAGACGGAAAUCAGGGCAAAGACUCCAUAUAACAAAGCGCAAGGAUAUGCGGCGGAAAGUUGCUGUCCUUCCAUGGCUAAUGCAGAAAUAAAUAUUUUGGAAGCAGAAAAACUCAACAGAGGAUUGAGCAUCA
B14: 127655467_127657569_92_3pUTR_ENSMUSG00000027379_ENSMUST00000028858|mouse|control|control (ssRNA)
RNA: GGGAGUUCUACAGUCCGACGAUCAACAUGCGAAAGACAUUUUCUAGGUUGUCCAUGACGAGAAAAAACGCGCAGCGGCGAAAUACCCCACCAGCCGCCGACCAAACUCCCCAUCAGCCCCUAACCCCGAGUCUCGAAGGCCGCCAACAGAGGAUUGAGCAUCA

target: T1, UNK ZnF1-3 (human, UniProt Q9C0B0 31-174); test: nsRBNS (natural sequence RNA bind-n-seq); RBNS binding buffer (assumed for nsRBNS): 25 mM Tris pH 7.5, 150 mM KCl, 3 mM MgCl2, 0.01% Triton X-100, 500 ug/ml BSA, 20 U/ml SUPERase-In, 4 C; UNK is unkempt and MSI1 is Musashi-1; names of the RNAs are library labels; protein concentration not given here; high values mean tight binding
T1 sequence: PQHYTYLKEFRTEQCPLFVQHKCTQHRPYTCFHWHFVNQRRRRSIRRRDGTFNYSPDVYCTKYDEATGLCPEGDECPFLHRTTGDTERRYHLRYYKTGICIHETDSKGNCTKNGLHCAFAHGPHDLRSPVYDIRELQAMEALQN

Going from B1 to B2, the binding signal rises from 0.778 enrichment R to 1.52 enrichment R.

First: B3
Second: B4
The binding signal of the first is lower: 0.84 enrichment R for the first, 1.47 enrichment R for the second.

First: B5
Second: B6
The binding signal of the first is higher: 0.672 enrichment R for the first, 0.441 enrichment R for the second.

Compared with B7, B8 is higher in binding signal: 0.261 enrichment R for the first, 0.903 enrichment R for the second.

First: B9
Second: B10
The binding signal of the first is lower: 1.42 enrichment R for the first, 3.2 enrichment R for the second.

First: B11
Second: B12
The binding signal of the first is higher: 1.3 enrichment R for the first, 0.66 enrichment R for the second.

First: B13
Second: B14
The binding signal of the first is higher: 1.69 enrichment R for the first, 1.4 enrichment R for the second.
